Experimental data published in ChEMBL document CHEMBL4888484, “Replenishing the malaria drug discovery pipeline: Screening and hit evaluation of the MMV Hit Generation Library 1 (HGL1) against asexual blood stage Plasmodium falciparum ,using a nano luciferase reporter read-out” (2022).
The whole screen tested about 150,000 compounds, of which about 540 (0.36%) showed an effect of 50% or more. Some of the results follow.

The molecules below were run on Plasmodium falciparum (assay: Primary screen in NF54 nanoGlo assay, in single point, at 2uM, 72h; a lower Z score goes with more inhibition). Conditions: timepoint 72 hour.
Format: functional, Erythrocyte

Row | SMILES | % Inhibition [%] | Z score
1 | O=C(NC1CCN(S(=O)(=O)c2ccccc2)CC1)N1CCCC[C@@H]1CO | -3 | 0.52
2 | COCCN=C([C@@H]1C(=O)Nc2ccc(C#N)cc21)N1CCN(c2ccccc2O)CC1 | -3 | 0.55
3 | O=C(Nc1cc(F)cc(Cl)c1)C(=O)N1C2CCC1CC(O)C2 (centres undefined) | -9 | 1.4
4 | COCc1cccc(N[C@@H](C)c2nc3ccccc3o2)c1 | -8 | 1.19
5 | Cc1noc(C)c1COc1ccccc1CN1CCC2(CC[C@@H]2O)CC1 | -5 | 0.6
6 | Cc1ccc(NC(=O)N2CC[S+]([O-])CC2)cc1 | -13 | 2.09
7 | Cc1cccc(CN2CCC[C@@]3(CCN(C(=O)c4[nH]nc5c4CCCC5)C3)C2)c1 | -12 | 1.73
8 | Cc1cc(C#N)c(N2CC[C@@]3(CCCN(CC4CC4)C3=O)C2)nc1C | -7 | 0.84
9 | COc1ccc(CCN[C@H]2CCc3ccccc3NC2=O)cc1 | -5 | 0.8
10 | CCCc1cc(Cn2cnc(-c3ccccc3)c2-c2ccc(CO)o2)on1 | 6 | -0.91
11 | CCn1cc(OCc2cccc(NC(C)=O)c2)cn1 | -5 | 0.68
12 | C#CCN(CC=C)C(=O)CC(=O)Nc1ccccc1C | 0 | 0.03
13 | COC[C@H](C)S(=O)(=O)NC1CCC(C)(C)CC1 | 8 | -0.85
14 | CS(=O)(=O)CCN1CCOc2ccc(Br)cc2C1 | -14 | 2.71
15 | COc1nccc(N2CCC[C@@](CO)(CC3CC3)C2)c1C#N | -26 | 2.28
16 | Nc1n[nH]c2c(Cl)c3nnc(-c4ccccc4)n3c(Cl)c12 | 37 | -4.76
17 | FC(F)(F)Cn1ncnc1CCCn1cccn1 | -8 | 1.43
18 | CC(C)[C@H](CNc1ccncc1F)N(C)C | 2 | -0.24
19 | O=C(Nc1ccnn1C1CCN(C2CCCC2)CC1)c1ccccc1 | -3 | 0.56
20 | O=C(Nc1cc(F)ccc1O)c1ccccc1NCc1cccnc1 | 6 | -1
21 | CC(CC(O)c1ccccc1)NC1CCCC1NC(=O)OC(C)(C)C (centres undefined) | -10 | 0.94
22 | COc1ncccc1CNC(=O)c1ccc(-c2cccc(Br)c2)nc1C | -36 | 4.25

Row | SMILES | % Inhibition [%] | Z score
23 | COc1ccc([C@H](C)NC(=O)c2ccc3ncnc(N4CCCCC4)c3c2)cc1 | -15 | 1.97
24 | Cc1ccnc(NC(=O)[C@H](C)c2cccnc2)n1 | -8 | 0.97
25 | COC(=O)[C@H]1CC12CCN(S(C)(=O)=O)CC2 | -15 | 1.8
26 | Cc1nn(Cc2sncc2Br)c(=O)s1 | -33 | 3.87
27 | COC1CC2C(=O)N(C(c3ccccc3)C(C)C)C(=O)N2C1 (centres undefined) | -6 | 0.83
28 | Nc1c(NC(=O)NC2CCCCC2)c(-c2ccccc2)nn1-c1ccccc1F | -3 | 0.5
29 | Cc1nc2n(c1C(=O)N(C)C)CCN(C(=O)c1cc(=O)[nH]c3ccccc13)C2 | -4 | 0.64
30 | CCOc1ncccc1-c1cc(C)c(C#N)c(C)n1 | -2 | 0.21
31 | CCCCNC(=O)C(=O)NCc1ccc(C)cc1 | 4 | -0.57
32 | CCn1cc(OC(=O)c2ccncc2Cl)cn1 | 5 | -0.71
33 | Cc1nnc(N2CCN(c3ccccn3)CC2)c(C#N)c1C | -23 | 2.07
34 | CC1CN(C(=O)c2cc(Cl)ccc2OCc2ccccc2)CC(C)O1 (centres undefined) | -9 | 1
35 | CC1CCc2ccccc2C1NC(=O)CCC(=O)N1CCC(O)CC1 (centres undefined) | 4 | -0.56
36 | O=C(c1cccc(F)c1F)N(CC1CCN(Cc2ccccc2F)CC1)C[C@H]1CCCO1 | -15 | 2.17
37 | C[C@@H](CC1CCCCC1)NCCCC(=O)N(C)C | -11 | 1.94
38 | Cc1[nH]ccc1C(=O)NCc1nccc(C(F)(F)F)n1 | -10 | 1.31
39 | Cc1cc2nccc(NC(=O)NCc3cc(C4CC4)no3)n2n1 | -4 | 0.43
40 | Cc1ccc(NC(=O)CN2CCN(C3CCCCC3)C(=O)C2=O)cc1C | -4 | 0.61
41 | CN(C)c1ccccc1C(=O)NC[C@@H](c1ccncc1)N1CCOCC1 | 6 | -0.95
42 | CC(C)=CCn1c(-c2ccccc2Cl)cn2cc(C(=O)N3CCCC3)nc2c1=O | -16 | 1.91
43 | CC[C@H](C)n1ncc(NC(=O)N2CCN(c3cccs3)CC2)c1C | -14 | 1.45
44 | CCC(O)CN(Cc1cccc(Cl)c1)CC1CC(c2ccccc2)=NO1 (centres undefined) | -3 | 0.34

Row | SMILES | % Inhibition [%] | Z score
45 | COc1ccc(-c2nnc3n2CCOC3)c(OC)c1 | 2 | -0.32
46 | O=C(Nc1ccc(Cl)c(Cl)c1)N1CC(N2C(=O)C3CC=CCC3C2=O)C1 (centres undefined) | -5 | 0.61
47 | COC(=O)C[C@H](N)c1cccc(Cl)c1 | 11 | -1.75
48 | COc1ccc2cc(-c3nc(CCN(C)C(=O)c4cccc(Cl)c4)no3)[nH]c2c1 | -9 | 1.75
49 | COCCCN(C)C(=O)N1Cc2ccc(Br)cc2C1 | -14 | 1.95
50 | Cn1cc(CC(=O)Nc2ccccc2Nc2c(F)cccc2F)cn1 | -9 | 0.8
51 | O=C(Nc1cccc2c1CCCC2)[C@@H]1CCCO1 | -2 | 0.19
52 | COc1ccc2cc1Oc1cccc(c1)CO[C@H]1CCN(C(=O)CCn3nccc3C)C[C@H]1NC(=O)CC2 | -21 | 2.71
53 | Cc1ccc(CNC(=O)c2cccc3[nH]cc(CN4CCCC4)c23)o1 | 7 | -1.11
54 | CC(C)c1nnc(COc2ccc([C@H]3CCOC3)cc2)o1 | -8 | 1.25
55 | N#Cc1cccc(-c2nnc(NS(=O)(=O)c3cc(Cl)cc4c3OCC4)o2)c1 | 24 | -2.71
56 | Cc1ccccc1OC1CN(C(=O)NC2(C3CC3)CC2)C1 | -19 | 2.6
57 | CC(C)c1ccccc1OC[C@@H](O)Cn1nccc1-c1cccnc1 | -11 | 2.02
58 | Cc1cc(C)c(C(=O)O)cc1NC(=O)[C@@H]1CCCN1C(=O)NC(C)C | 5 | -0.54
59 | COc1ccnc(NC2CCCCCC2)n1 | 3 | -0.22
60 | CCCn1nccc1C(=O)N1CCn2nc(CN3CCCCCC3)cc2C1 | -5 | 0.69
61 | O=C(N[C@@]1(CO)CCOC1)c1cccc(C(F)F)c1 | 4 | -0.59
62 | CCCn1c(C)nnc1CNC1(c2cccc(Cl)c2)CC1 | -7 | 0.62
63 | COc1ccccc1C=CCN(C)C1CCCCC1S(C)(=O)=O (centres undefined) | -8 | 0.75
64 | COc1nc(C)cc(C)c1CNC(=O)NC1CCC2(CC1)CC2(F)F (centres undefined) | -2 | 0.29
65 | CCc1nncn1CCNC(=O)c1cc(F)cc(Cl)c1O | 29 | -3.27
66 | Cc1nc(CC(=O)NCc2snnc2C(C)C)cs1 | -12 | 1.61

Row | SMILES | % Inhibition [%] | Z score
67 | Cc1cc(Cl)ccc1CN1CCN2C(=O)NC[C@H]2C1 | 16 | -1.6
68 | O=C(C1CCOCC1)N1Cc2ccccc2C1 | -13 | 1.63
69 | Cc1cccc(S(=O)(=O)CCCOc2cc(C)c(C)nn2)c1 | -17 | 1.42
70 | Cc1nc2ccccc2c(C)c1C(=O)OCC(=O)Nc1ccc(S(=O)(=O)C(F)F)cc1 | -1 | 0.06
71 | COc1ccc(C)cc1-c1nc(C2CCOCC2)n[nH]1 | -1 | 0.25
72 | C1CCC2(CC1)CCN(c1nnc([C@@H]3CCCO3)n1CC1CCOC1)C2 (some centres undefined) | 10 | -1.13
73 | COc1ccc(-c2ccnc(N[C@H]3CCN(C4CCOCC4)C3=O)n2)cc1 | -13 | 2.48
74 | CCNC(=O)[C@H](C)NC(=O)c1cc(-c2cc(C)oc2C)nc2onc(C)c12 | 0 | -0.06
75 | O=C1CC(CC(=O)N2CCOCC2CC2CCC2)CO1 (centres undefined) | -3 | 0.52
76 | O=C(Cc1ccc(F)cc1)N1CCc2nc(N3CCN(c4ccccc4)CC3)nc(N3CCCCC3)c2C1 | -4 | 0.67
77 | Cc1n[nH]cc1CNC(=O)N[C@@H]1C[C@H]1c1cccc(F)c1 | 1 | -0.06
78 | CC(C)C(=O)N[C@@H]1c2ccccc2C2(CCNCC2)[C@H]1OCc1cccnc1 | 3 | -0.55
79 | O=C(CCc1ccsc1)N1CCOC[C@@H](CO)C1 | 9 | -1.11
80 | CCn1ncc(C(=O)NCC(C)(C)N2CCOCC2)n1 | -12 | 1.65
81 | CC[C@@H](C(=O)Nc1cccc(C)c1C)n1nc(-c2ccc(OC)cc2)c2c(C)onc2c1=O | -16 | 1.98
82 | CC(C)C[C@@H]1N[C@H](C(=O)NCc2ccccn2)Cc2c[nH]c3cccc1c23 | 4 | -0.7
83 | CCc1nc(C)c(CN[C@@H](C)c2nc(C(C)C)no2)[nH]1 | -12 | 2.5
84 | CC(=O)N(C)C1CCN(CC(=O)NCc2cccs2)CC1 | -7 | 1.03
85 | CCN(Cc1ccncc1)c1ncnc2scc(-c3ccc(C)cc3)c12 | 2 | -0.34
86 | COc1cccc(CCc2ccccc2C(=O)N2CCC[C@@](O)(CO)C2)c1 | -5 | 0.61
87 | COc1ccc(-c2noc(Cn3nc(-c4ccc(C)c(C)c4)c4ccccc4c3=O)n2)cc1OC | -9 | 1.49
